The % Inhibition is the change of the read-out against control, counted positive when it falls.

We go through 41 compounds from ChEMBL document CHEMBL4888484, “Replenishing the malaria drug discovery pipeline: Screening and hit evaluation of the MMV Hit Generation Library 1 (HGL1) against asexual blood stage Plasmodium falciparum ,using a nano luciferase reporter read-out” (2022).

Screen size: about 150,000 compounds; about 540 (0.36%) showed an effect of 50% or more. The list shows a part of the results.

The subject of this assay is Plasmodium falciparum. As to the kind of experiment: Primary screen in NF54 nanoGlo assay, in single point, at 2uM, 72h; a lower Z score goes with more inhibition. The conditions noted are these: timepoint 72 hour. The class given is functional, Erythrocyte.
As to `CC(C)C[C@@H](C(=O)Nc1cccc(NC(=O)C(C)C)c1)N1CCCCC1=O`, the “% Inhibition” value was -5% and the Z score turned out to be 1.16.
For `CO[C@H]1[C@@H]2CC[C@H]1CN(Cc1ccccc1OCC(=O)N1CCCCC1)C2` the same measures were -8% and 1.56.
For `O=C(Nc1ccc(Cl)c(Cl)c1)N1CCC[C@H]1c1ccc2c(c1)OCCCO2` the same measures were 0% and 0.07.
The like results for `CCCC(=O)Nc1nnc(CC(=O)N2CCCC2)s1` were, in that order, 0% and 0.02.
As for `Cc1cc(F)ccc1C(=O)N1CCCC[C@@H]1CCN1CCCC1`, the “% Inhibition” value stood at 0% and the Z score is 0.03.
The like results for `CCN1CCN(C(=O)c2csc(NC(=O)c3ccccc3C)n2)CC1` were, in that order, 1% and -0.1.
The like results for `O=C(CN1CC2(CCCCC2)CC1=O)N1CCN(C(=O)c2ccco2)CC1` were, in that order, 0% and -0.02.
Consider `COc1nscc1-c1ncc(C(C)C)s1`, for which the “% Inhibition” value was -9% and the Z score was determined as 0.91.
For `COC[C@@H]1[C@H](C(=O)NCc2ccccc2)CCC(=O)N1C` the same measures were -3% and 0.3.
Consider `COCCN(Cc1cc(NC(=O)CC(C)(C)C)ccc1N(C)C)C(=O)c1ccco1`, for which the “% Inhibition” value is listed as 7% and the Z score is recorded as -0.67.
The like results for `O=C(NCc1cccc(CO)c1)N1CCC[C@@H]1CCc1ccccc1` were, in that order, -5% and 0.74.
For `c1ccc(-c2cc(CNc3ncnc4c3CCNCC4)[nH]n2)cc1` the same measures were -13% and 1.3.
The like results for `COc1nccnc1C[C@@H]1COc2ccccc2C1` were, in that order, 4% and -0.61.
Regarding `CC1CC(C)CN(C(C(=O)NC2CCCC2)c2ccc(Cl)cc2)C1` (configuration not stated), the “% Inhibition” value is listed as -7% and the Z score is on record as 1.06.
The like results for `O=C(NC[C@H]1CCCO1)c1nn(-c2ccc(Cl)cc2)c(=O)n(Cc2ccc(F)cc2)c1=O` were, in that order, -19% and 1.96.
For `CS(=O)(=O)c1ccccc1-c1nnc(NC(=O)c2ccc3c(c2)CCCC3)o1` the same measures were -13% and 1.67.
On to `CC(C)(O)CN1CCN(c2ccc(F)c3cnccc23)CC1`, for which the “% Inhibition” value was -18% and the Z score came out at 3.35.
The like results for `CCOC1CCN(C(=O)Nc2cccc(N3CCCCCC3)c2)CC1` were, in that order, 0% and 0.07.
As to `CCN(CC(=O)Nc1cn[nH]c1)C1CC1`, the “% Inhibition” value is -11% and the Z score turned out to be 1.91.
For `O=C(CCc1ccccc1)Nc1ccc(N2C(=O)c3ccccc3C2=O)c(Cl)c1`, the “% Inhibition” value was -6% and the Z score amounted to 0.82.
In the case of `O=C(Nc1ccc(N2CCCN(Cc3cccc(F)c3)C2=O)cc1)C1CCC1`, the “% Inhibition” value is -7% and the Z score was 1.31.
For `Cc1cc(F)ccc1-n1cc(C(=O)N2C[C@H]3CCC[C@H]3C2)nn1` the same measures were 2% and -0.29.
For `COc1ccc(CN(C(=O)COc2c(C)cccc2C)[C@H]2CCS(=O)(=O)C2)cc1OC` the same measures were 10% and -0.88.
The like results for `CC1(C)CN(C(=O)c2cccc(Nc3nccs3)c2)[C@H]2COC[C@H]21` were, in that order, -16% and 2.12.
`COc1cccc(-c2nccn2CCCOC2CCN(C)CC2)c1`: the “% Inhibition” value was -5% and the Z score came out at 0.57.
The like results for `Cn1c(N)c(S(=O)(=O)N2CCN(c3ccccc3Cl)CC2)c(=O)n(C)c1=O` were, in that order, 59% and -11.06.
The like results for `C[C@H]1CN(S(=O)(=O)c2cccnc2)c2cccc(Cl)c2O1` were, in that order, 1% and -0.09.
`Cc1cc2c(cc1-c1cc(-c3ccc[nH]3)nc(N)c1C#N)OCCO2`: the “% Inhibition” value was -11% and the Z score is listed as 1.3.
For `CC(C)[C@H](NCC(=O)Nc1ccc(Cl)cn1)c1nnc2ccccn12` the same measures were -7% and 0.89.
For `O=C(NCCN1CCCC1=O)[C@H](O)c1cccc(F)c1` the same measures were 5% and -0.99.
The like results for `CN(C)CCN(CCN(C)C)S(=O)(=O)c1c(F)cccc1F` were, in that order, -15% and 1.54.
As to `CN(CC(C)(C)CO)C(=O)c1ccc(-c2ccc3nccc(O)c3c2)cc1`, the “% Inhibition” value is on record as 0% and the Z score is given as -0.04.
For `Cc1ncc(C(=O)Nc2ccc(F)c(NS(C)(=O)=O)c2)c(C(C)C)n1` the same measures were -8% and 1.34.
For `CC[C@H](NC(=O)c1cnc(O)cn1)c1cnn(C)c1` the same measures were -12% and 1.45.
For `COc1cccc(NC(=O)[C@@H]2CC(=O)c3cc(F)ccc3O2)c1` the same measures were 31% and -3.56.
`Cc1ccc(CN2CCc3nc(N4CCCCC4)nc(Oc4ccc(F)c(F)c4)c3C2)cc1`: the “% Inhibition” value is reported as 2% and the Z score is reported as -0.33.
Turning to `O=C(NCCCn1ccnn1)c1ccc2c(c1)CCCC2`, the “% Inhibition” value is -13% and the Z score amounted to 1.47.
The like results for `COc1ccc(-c2cc3c4nn(CC(=O)Nc5cccc(C)c5C)c(=O)n4ccn3n2)cc1` were, in that order, -9% and 1.28.
For `O=C(CCc1ccsc1)N1CCCCCCC1` the same measures were -11% and 1.08.
The like results for `O[C@]1(CN2CCCC2)COCCN(c2nnnn2-c2ccccc2)C1` were, in that order, -4% and 0.67.
As for `Cc1nnsc1C(=O)N1CCc2sc(Cl)cc2C1`, the “% Inhibition” value is on record as -4% and the Z score came to 0.43.
